Measured values: the supplement of paper PMC8728848
The other results are listed elsewhere or left out.

Columns and labels:
Test in all cases: glycan array binding signal (z-score within array); higher = stronger binding
Conditions in all cases: glycan notation: IUPAC condensed, linker removed
Gal3S4S(b1-4)GlcNAc = molecular target: Gal3S4S(b1-4)GlcNAc
Method in brief: (§1)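 Glycan array data were curated from 3228 arrays in the Consortium for Functional Glycomics database and kept only where the protein sequence was available. Glycan names were converted to IUPAC-condensed notation, and columns mapping to the same glycan were averaged. The binding signal is a within-array Z-score, averaged across arrays of the same protein sequence at different concentrations or buffers and across linkers. Negative Z-scores can be read as non-binding.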

Gal3S6S(b1-4)GlcNAc = molecular target: Gal3S6S(b1-4)GlcNAc
Method in brief: as §1

Gal3S6S(b1-4)GlcNAc6S = molecular target: Gal3S6S(b1-4)GlcNAc6S
Method in brief: as §1

Gal4S(b1-4)GlcNAc = molecular target: Gal4S(b1-4)GlcNAc
Method in brief: as §1

Gal4S6S(b1-4)GlcNAc = molecular target: Gal4S6S(b1-4)GlcNAc
Method in brief: as §1

Gal6P(b1-4)GlcNAc = molecular target: Gal6P(b1-4)GlcNAc
Method in brief: as §1

Gal6S(b1-3)GlcNAc = molecular target: Gal6S(b1-3)GlcNAc
Method in brief: as §1

Gal6S(b1-3)GlcNAc6S = molecular target: Gal6S(b1-3)GlcNAc6S
Method in brief: as §1

Gal6S(b1-4)Glc = molecular target: Gal6S(b1-4)Glc
Method in brief: as §1

Gal6S(b1-4)Glc6S = molecular target: Gal6S(b1-4)Glc6S
Method in brief: as §1

Gal6S(b1-4)GlcNAc = molecular target: Gal6S(b1-4)GlcNAc
Method in brief: as §1

Gal6S(b1-4)GlcNAc6S = molecular target: Gal6S(b1-4)GlcNAc6S
Method in brief: as §1

GalNAc(a1-3)Gal = molecular target: GalNAc(a1-3)Gal
Method in brief: as §1

GalNAc(a1-3)GalNAc = molecular target: GalNAc(a1-3)GalNAc
Method in brief: as §1

[1] = molecular target: GalNAc(a1-3)GalNAc(b1-3)Gal(a1-4)Gal(b1-4)Glc
Method in brief: as §1

[2] = molecular target: GalNAc(a1-3)GalNAc(b1-3)Gal(a1-4)Gal(b1-4)GlcNAc
Method in brief: as §1

GalNAc(b1-3)Gal = molecular target: GalNAc(b1-3)Gal
Method in brief: as §1

[3] = molecular target: GalNAc(b1-3)Gal(a1-4)Gal(b1-4)GlcNAc
Method in brief: as §1

[4] = molecular target: GalNAc(b1-3)Gal(a1-4)Gal(b1-4)GlcNAc(b1-3)Gal(b1-4)Glc
Method in brief: as §1

[5] = molecular target: GalNAc(b1-3)Gal(a1-6)Gal(b1-4)Glc
Method in brief: as §1

GalNAc(b1-3)GalNAc = molecular target: GalNAc(b1-3)GalNAc
Method in brief: as §1

GalNAc(b1-4)Gal(b1-4)Glc = molecular target: GalNAc(b1-4)Gal(b1-4)Glc
Method in brief: as §1

GalNAc(b1-4)GlcNAc = molecular target: GalNAc(b1-4)GlcNAc
Method in brief: as §1

[6] = molecular target: GalNAc(b1-4)GlcNAc(b1-2)Man(a1-3)[GalNAc(b1-4)GlcNAc(b1-2)Man(a1-6)]Man(b1-4)GlcNAc(b1-4)GlcNAc
Method in brief: as §1

GalNAc(b1-4)GlcNAc6S = molecular target: GalNAc(b1-4)GlcNAc6S
Method in brief: as §1

GalNAc(b1-6)GalNAc = molecular target: GalNAc(b1-6)GalNAc
Method in brief: as §1

GalNAc3S(b1-4)GlcNAc = molecular target: GalNAc3S(b1-4)GlcNAc
Method in brief: as §1

GalNAc3S(b1-4)GlcNAc3S = molecular target: GalNAc3S(b1-4)GlcNAc3S
Method in brief: as §1

GalNAc4S6S(b1-4)GlcNAc = molecular target: GalNAc4S6S(b1-4)GlcNAc
Method in brief: as §1

GalNAc6S(b1-4)GlcNAc = molecular target: GalNAc6S(b1-4)GlcNAc
Method in brief: as §1

B1: CvGal1 (Crassostrea virginica), A7Y0I5 (protein)
chain: MTYQISKISQPFTSYIPNGLHIGKHLLLRGRVSYGTEAFAINLQQNPEPCNGEVAFHFNPRPGEQQCVRNSFDGGSWMDEERDQPHFPFDEGRSFTLRIEVAEEGFRTYVNGKPYVNFSHRLDLGNVHYLYLTEGAEFYDISYQDRYTLPYKSEIPQQMNVGKAVRIRGASQDNDGFSVNFACDPDNENCAFHFNPRPNEGVVVRNANLGGWGDEERDYEAEFPFHPYNYFDAMFICTDDKYLVHVNDKYFTEFNHRGGVDASSFFNIVGNLDIQDVEYFEPLEDDFVKTIPSGLVKGDVLIFRGFMKPGGDTFSINFMNGYSVEDDIAFHLNPRVGEGQVVMNCCMGGAWGDEEREDIPSPLADREPFEVKVVVKKNKFKVYVNGKKCMKFAARGNLEDIKGVNIKGEAYVYEVKLERKLEDSWEYLPGGFRVGGWVVVQAIPKKGSEGFAINFRTGSDEDSDIAFHFNPRLQENCTIRNSCAGGAWGGEERDQPDFPFEKKDTCEIAIQAQPDRFVTYVNGKRYIEFNHRLPLESITCVELTGRADFFEPKFF
Q: B1 was tested. Which “glycan array binding signal (z-score)” value (Gal3S4S(b1-4)GlcNAc) did it give?
A: Its value is -0.279.

Q: What about the “glycan array binding signal (z-score)” value (Gal3S6S(b1-4)GlcNAc) of the same binder?
A: Its value is -0.269.

Q: And the “glycan array binding signal (z-score)” value (Gal3S6S(b1-4)GlcNAc6S)?
A: Its value is -0.273.

Q: And the “glycan array binding signal (z-score)” value (Gal4S(b1-4)GlcNAc)?
A: Its value is -0.296.

Q: What about the “glycan array binding signal (z-score)” value (Gal4S6S(b1-4)GlcNAc) of the same binder?
A: Its value is -0.212.

Q: What about the “glycan array binding signal (z-score)” value (Gal6P(b1-4)GlcNAc) of the same binder?
A: The value was -0.272.

Q: And the “glycan array binding signal (z-score)” value (Gal6S(b1-3)GlcNAc)?
A: The value was -0.297.

Q: What about the “glycan array binding signal (z-score)” value (Gal6S(b1-3)GlcNAc6S) of the same binder?
A: The value was -0.231.

Q: What about the “glycan array binding signal (z-score)” value (Gal6S(b1-4)Glc) of the same binder?
A: The value was -0.291.

Q: And the “glycan array binding signal (z-score)” value (Gal6S(b1-4)Glc6S)?
A: The value was -0.256.

Q: What about the “glycan array binding signal (z-score)” value (Gal6S(b1-4)GlcNAc) of the same binder?
A: Its value is -0.27.

Q: What about the “glycan array binding signal (z-score)” value (Gal6S(b1-4)GlcNAc6S) of the same binder?
A: The value was -0.182.

Q: What about the “glycan array binding signal (z-score)” value (GalNAc(a1-3)Gal) of the same binder?
A: The value was -0.235.

Q: What about the “glycan array binding signal (z-score)” value (GalNAc(a1-3)GalNAc) of the same binder?
A: The value was -0.255.

Q: And the “glycan array binding signal (z-score)” value [1]?
A: Its value is 3.5.

Q: And the “glycan array binding signal (z-score)” value [2]?
A: Its value is 1.87.

Q: What about the “glycan array binding signal (z-score)” value (GalNAc(b1-3)Gal) of the same binder?
A: The value was -0.286.

Q: What about the “glycan array binding signal (z-score)” value [3] of the same binder?
A: The value was -0.309.

Q: What about the “glycan array binding signal (z-score)” value [4] of the same binder?
A: Its value is -0.29.

Q: And the “glycan array binding signal (z-score)” value [5]?
A: Its value is -0.271.

Q: What about the “glycan array binding signal (z-score)” value (GalNAc(b1-3)GalNAc) of the same binder?
A: Its value is -0.247.

Q: And the “glycan array binding signal (z-score)” value (GalNAc(b1-4)Gal(b1-4)Glc)?
A: Its value is -0.266.

Q: And the “glycan array binding signal (z-score)” value (GalNAc(b1-4)GlcNAc)?
A: The value was -0.249.

Q: What about the “glycan array binding signal (z-score)” value [6] of the same binder?
A: The value was -0.184.

Q: What about the “glycan array binding signal (z-score)” value (GalNAc(b1-4)GlcNAc6S) of the same binder?
A: The value was -0.266.

Q: What about the “glycan array binding signal (z-score)” value (GalNAc(b1-6)GalNAc) of the same binder?
A: Its value is -0.307.

Q: What about the “glycan array binding signal (z-score)” value (GalNAc3S(b1-4)GlcNAc) of the same binder?
A: Its value is -0.261.

Q: What about the “glycan array binding signal (z-score)” value (GalNAc3S(b1-4)GlcNAc3S) of the same binder?
A: Its value is -0.222.

Q: What about the “glycan array binding signal (z-score)” value (GalNAc4S6S(b1-4)GlcNAc) of the same binder?
A: The value was -0.283.

Q: And the “glycan array binding signal (z-score)” value (GalNAc6S(b1-4)GlcNAc)?
A: Its value is -0.302.
